# In PubChem BioAssay AID1466 (National Center for Advancing Translational Sciences (NCATS), 2008):
# The whole screen tested about 200,000 compounds, of which about 10 (0.005%) were called active. Inconclusive results, whose numbers are uncertain, are shown with a selection of clear calls. Calls come from the whole dose curve; as a rule, active = well fitted inhibition curve with a large enough effect; inconclusive = small, poorly fitted or top-dose-only effect, or effect the other way, or another doubt; inactive = no such curve, though single readings can be large or run the other way. Potencies of inconclusive entries are left out as doubtful fits.
# Biological target: Lysosomal alpha-glucosidase (Homo sapiens) (UniProt P10253)
# Experiment: qHTS Assay for Inhibitors of Human alpha-Glucosidase as a Potential Chaperone Treatment of Pompe Disease;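 for activity change, negative = inhibition: plate controls were uninhibited enzyme wells for no effect and no-enzyme background for full effect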
# Details: purified human GAA, 4-MU-alpha-glucoside fluorescence; activity change, negative = inhibition: at 76.9 µM (top of the series) unless noted
# Summary of the method: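 Fluorescence at Ex 365/Em 440 nm from 4-methylumbelliferone reported enzyme activity after 20 min at room temperature. Reactions used 4 nM enzyme and 400 uM substrate at pH 5.0; curves fitted with the Hill equation.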
# Potency is the fitted concentration of half-maximal effect; tags give direction and shape of the fitted curve.
Structure (SMILES),Potency,"activity change, negative = inhibition"
Cn1c(SCC(=O)Nc2ccccc2)nc(O)cc1=O,"inconclusive [inhibitor, single point]",–
Cc1cccc(OCC(O)CN2CC3(C)CC2CC(C)(C)C3)c1 (configuration not stated),"inconclusive [inhibitor, full curve, poor fit]",–
Cc1ccccc1NC(=O)C1CCCN(S(=O)(=O)c2cnc[nH]2)C1 (configuration not stated),"inconclusive [inhibitor, single point]",–
Cc1cn(C2OC(COC(=O)c3ccccc3)C(OC(=O)c3ccccc3)C2OC(=O)c2ccccc2)c(=O)[nH]c1=O (configuration not stated),–,inactive: -9.54%
Cc1ccc2c(c1)CCCN2C(=O)c1c(C)noc1C,"inconclusive [inhibitor, full curve, poor fit]",–
COCC(=O)Nc1c(C(=O)Nc2cccc(OC)c2)oc2ccccc12,"inconclusive [inhibitor, single point]",–
COc1ccc2c(c1)-c1nc(NC(=O)c3cccs3)sc1CC2,–,inconclusive: 12.4% [activator]
CCOC(=O)Cc1ccc(NC(=O)c2ccccc2Br)cc1,–,inconclusive: 1.13% [activator]
Cc1ccc(NS(=O)(=O)c2ccc(C(=O)NCC3CCCO3)cc2)cc1 (configuration not stated),"inconclusive [inhibitor, single point]",–
O=C(COc1ncnc2c1cnn2-c1ccccc1)Nc1ccc(S(=O)(=O)N2CCCCC2)cc1,–,inconclusive: -18.3% [inhibitor]
CCOC(=O)C(NC(=O)c1ccccc1OCC)(Nc1ncccn1)C(F)(F)F (configuration not stated),"inconclusive [inhibitor, single point]",–
Clc1ccccc1Nc1nc(-c2cccnc2)cs1,–,inconclusive: 20.3% [activator]
N=c1c2c(-c3ccccc3)c(-c3ccccc3)n(Cc3ccco3)c2ncn1CCCN1CCOCC1,–,inactive: -5.29%
CC(C)N1CCc2c(sc(NC(=S)NC(=O)c3ccccc3)c2C#N)C1,"inconclusive [inhibitor, single point]",–
Cc1cc(C(=O)N/N=C/c2cc(Br)cc(Br)c2OC(=O)c2cccc(F)c2)n[nH]1,–,inconclusive: 15.3% [activator]
CCC(=O)NC(=S)Nc1cccc(Cl)c1N1CCCC1,–,inconclusive: 11.7% [activator]
CCOc1cc(C(=O)N2CCN(C/C=C/c3ccccc3)CC2)cc(OCC)c1OCC,"inconclusive [inhibitor, partial curve, poor fit]",–
CC(=O)NCC(=O)N(C)C(C(=O)Nc1ccc2c(c1)OCCO2)c1ccccc1 (configuration not stated),"inconclusive [inhibitor, single point]",–
O=C(Nc1ccc2nn(-c3ccccc3)nc2c1)c1ccc2c(c1)OCCO2,"inconclusive [activator, single point]",–
O=C(ON=C1CCN(S(=O)(=O)c2ccccc2)CC1)c1cccc(Cl)c1,"inconclusive [inhibitor, single point]",–
COc1cc(-c2csc(N3CCOCC3)n2)cc(OC)c1OC,"inconclusive [inhibitor, partial curve]",–

Structure (SMILES),Potency,"activity change, negative = inhibition"
O=C(COc1ccc(Br)cc1CNCCc1ccccc1)NCc1ccccc1,–,inactive: -8.09%
C=CCNC(=S)N/N=C/c1ccc(-c2cccc([N+](=O)[O-])c2)o1,–,inconclusive: 15.2% [activator]
C=CCNC(=O)CC1Nc2c3ccccc3nc(=S)n2C1=O (configuration not stated),"inconclusive [activator, single point]",–
CC1CCC(C(=O)c2c(O)c3ccccc3oc2=O)CC1 (configuration not stated),–,inconclusive: -15.9% [inhibitor]
CC(OC(=O)c1cc2c(ccc3ccccc32)oc1=O)c1nc2ccccc2s1 (configuration not stated),"inconclusive [activator, partial curve]",–
CC1CCN(C(=O)Oc2ccccc2)CC1,"inconclusive [activator, full curve, poor fit]",–
O=C(NN1C(=O)C2C3C=CC(C4CC34)C2C1=O)c1ccc(Br)cc1 (configuration not stated),–,inconclusive: 16.5% [activator]
CN1CCN(CCCNC(=O)c2ccc3c(c2)N(Cc2ccccc2)CCS3)CC1,"inconclusive [activator, partial curve]",–
CC(NC(=O)NC1CCCCC1)C(c1cccs1)N1CCN(Cc2ccccc2)CC1 (configuration not stated),"inconclusive [inhibitor, single point]",–
CCOc1c2c(nc3ccc(Cl)cc13)CCC2,"inconclusive [inhibitor, single point]",–
CCOc1ccccc1Nc1ncnc2ccccc12,"inconclusive [inhibitor, single point]",–
COc1ccccc1CNc1cc(C)ccc1C,"inconclusive [inhibitor, single point]",–
Cc1ccsc1C1C2=C(CC(C)(C)CC2=O)Nc2ncnn21 (configuration not stated),"inconclusive [activator, partial curve]",–
CCN(CC)CC(=O)Nc1cc(N(C)C)nc2ccccc12,"inconclusive [activator, partial curve, poor fit]",–
N#Cc1ccc(C(=O)Nc2cccc(NC(=O)c3ccco3)c2)c(F)c1,"inconclusive [inhibitor, full curve, poor fit]",–
C/C(=N/NS(=O)(=O)c1ccc(C)cc1)c1cccc(NC(=O)c2cccc(Cl)c2)c1,"inconclusive [inhibitor, single point]",–
COc1ccc(CN2CCC(C(=O)N(C)CCc3ccc(OC)c(OC)c3)CC2)c(OC)c1,"inconclusive [inhibitor, full curve, poor fit]",–
CCOC(=O)N1CCC(Nc2c(Nc3cccc(CC)c3)c(=O)c2=O)CC1,–,inconclusive: -18.5% [inhibitor]
COc1ccc(CCNC(=O)c2ccc3ccccc3n2)cc1OC,–,inconclusive: 17.3% [activator]
O=C(N/N=C/c1cccc(Oc2ccccc2)c1)c1ccccc1Br,"inconclusive [inhibitor, single point]",–
Fc1ccc(C2NCCn3cccc32)cc1 (configuration not stated),"inconclusive [inhibitor, full curve, poor fit]",–
